# Data published in the supplement of paper PMC10126150.
# Values marked as one replicate rest on one cluster of the flow cell; about a third of the high ones do not repeat.
# System: ATP
# Experiment: switch fluorescence ratio, 500 uM ATP over buffer (Cy3 cluster intensity, sum of 5 cycles each) (fold (ratio)); higher = stronger signal-on switching upon ATP binding; sequences stand for … in TCGTCGGCAGCGTCAGATGTGTATAAGAGACAGTTTTTTTTTTTTTTTTTTTTTTTTT…TC
# Conditions: aptamer strand: ATP DNA aptamer (quencher-CACCTGGGGGAGTATTGCGGAGGAAGG + anchor), 100 nM annealed; ATP concentration: 500 uM; one replicate
# In short: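 The fluorescence ratio divides summed target-cycle Cy3 intensity by summed buffer-cycle Cy3 intensity for each cluster and is averaged per switch-domain sequence. Cy3-labelled switching-strand clusters on a modified Illumina MiSeq flow-cell were annealed to 100 nM quencher-labelled ATP aptamer, then imaged in selection buffer and again after 15 min with 500 uM ATP at 22 °C. Five such cycles were run, with NaOH stripping and re-annealing between them, and clusters outside 100-1000 RFU were excluded.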
# 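Also: ATP exposure 15 min at 22 °C before imaging.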
row,Sequence,switch fluorescence ratio
1,GAACAGGGAA,1.01
2,GCGAAGCATA,1.06
3,GCCAATACAT,1.2
4,TGATTCGCCG,1
5,GGAGGGACAG,0.999
6,TTTTCCGACT,1.08
7,AGAATTGTTG,0.956
8,CATACGTTGG,0.961
9,AACTTCCTTG,1.29
10,GAACGTAGGA,1.02
11,TATCCCTCGT,1.01
12,CAAGGGAGTG,1.01
13,GCTGCGGTTG,0.974
14,CAAGGTTAGG,1.02
15,TCACTTTGCC,0.952
16,ATTGCTTGTG,0.957
17,CTCTCTGAAA,1.21
18,CCATCGTTGC,1.21
19,TTGCTTTGCC,1.1
20,AATGGAGCGG,0.987
21,CTCGGCGTTG,0.995
22,TTTACCCTTA,1.02
23,ATCCAGTTGG,1
24,GACGGCGAGG,1
25,GATTAGAAAA,0.997
26,AAATTCATAT,1.04

row,Sequence,switch fluorescence ratio
1,CTCTGGAATT,1.6
2,TACAGTTGGA,1.03
3,GTTAGTCGA,1.02
4,CGAGCTTAGT,1.01
5,GGGACATGGA,1.03
6,TAAAACCAAC,1.13
7,ACGAGAGACG,0.99
8,CCTGGCTTAT,1.18
9,ATATTAGTGC,0.949
10,GTTTCTTTG,1.02
11,GTCCTCTAAG,0.991
12,TTGAGAACG,1.01
13,CTTTTCGACA,0.999
14,GGCTTCAGCA,0.993
15,GCCGACCTAT,1.02
16,TTATAAGGGC,1.04
17,TATAGCAGTG,1
18,GGATGAGTCT,1.01
19,CAGTTCTGTT,1.02
20,AGCCAGGTCT,0.897
21,TATTTCACCT,1.12
22,TAGTCTGAAT,1.01
23,CGCCATATGA,1.21
24,TTCGGAGGAC,1.07
25,GTTAGCGATA,1.29
26,AACGTGCGCG,1.01

row,Sequence,switch fluorescence ratio
1,CCAACCTTTC,1.02
2,ACTGTGTTT,1
3,GGGCAGATGT,1.03
4,CCCCGGGAAT,1.07
5,TATAGTTCTG,0.982
6,ATAGTTTTTA,0.966
7,GTGAGGTATT,0.984
8,CCATTTATTC,0.978
9,ACATAGCGTC,1.08
10,TTTCCGGTAA,5.45
11,AGCTGGTCAT,0.981
12,GTGTAGAACA,1.01
13,ATTTAGTCAA,1.04
14,TCCCAGACGC,1.22
15,TACGAACGGA,1.44
16,CGCTAGTATC,1.16
17,AAATGGGTCG,0.961
18,GATACTGTGG,1
19,TTCGTCTTAT,1.04
20,TAAGTAAAGG,1.01
21,AGATACGTGC,1.05
22,CGTCTTTGTA,0.979
23,TGCTAGGTTA,0.971
24,ATGGAAATGA,0.994
25,GGACCATCAG,0.951
26,GTAATGTGAC,1.17

row,Sequence,switch fluorescence ratio
1,CTTGCATTTA,0.986
2,TGCTGGCATT,0.976
3,CGTCCAGGTC,1.44
4,GCCGTCCGTC,0.99
5,AGGGCTCA,1.01
6,CTACAAGCAT,1.17
7,CTAAATGCAA,1.4
8,ATGTGTCT,1.04
9,CCGCGTGGGG,1.09
10,CATATTCGAA,0.998
11,ATTTGGTCTA,0.997
12,TTTTAGTAGA,1.02
13,CTTAAGTCTC,0.998
14,TAGACTTTC,1.16
15,TGGTCAGCCG,1.06
16,CGGAATGGAA,0.981
17,TTACGTTGAT,0.974
18,CGCAGGGTGT,1.24
19,CCGGAGTCGG,1.86
20,TCCATGTTG,1
21,ACCTAATC,1.19
22,GCCAATTAAC,1.13
23,GCTTAGGATG,1.04
24,GCAGTTTGCT,0.968
25,TAGAAGATCG,0.959
26,ACTCCGAGGG,2.15

row,Sequence,switch fluorescence ratio
1,AATCGTTGTT,0.966
2,ATCGAGGGTT,0.976
3,CGCATCCGAA,1.02
4,CCAGAATGGT,0.989
5,GTCGTTTTTT,1.01
6,CCCGCGTCTG,1.17
7,ACCTGTGCCC,1.05
8,CTCAGGAAAG,0.982
9,ATAAGCAGGG,1.03
10,GGAGATGACA,1.04
11,GGCCCAAGTA,0.995
12,GCATTACAAC,1.23
13,AGAGGCATTT,0.982
14,AAAGTGATGA,1.04
15,AGAGTTACTC,1.04
16,CGCTCTCCGA,1.14
17,CCTACGACGG,2
18,CGGGTACAGC,0.985
19,GATAATTCAT,1.07
20,CAGTTCAGT,1.02
21,CAAGCATCCG,1.04
22,TTGAGGAGCA,0.995
23,TGATTCGCAG,1.14
24,CCTAAGCAGT,4.19
25,ATAATTGCTA,0.987
26,AAGAATGACC,1.16

row,Sequence,switch fluorescence ratio
1,CACTGTTCCC,1.04
2,TTAGGGTGGC,1.05
3,GTATTAACC,0.99
4,TAGGATCCCG,1.02
5,CTGACGTATG,1.02
6,GGGCTGTCGC,1.01
7,ACCAGACAGT,1.02
8,ATTACTGTTC,1.21
9,TTCGGTCTA,0.99
10,GGGTAATGTT,1.03
11,TAGTGAGGAA,0.968
12,TGGCACGGCC,0.968
13,GGACGTACTA,1.63
14,AAACATTCTA,1
15,GACGTACTGG,1.32
16,GTCGACAGTG,1
17,TAGTGACAGT,1.03
18,TGGCGACACT,0.965
19,ATGTATGGCC,0.975
20,CACCTACCAA,1.42
21,TAAGACGCTC,1.24
22,AGAATTGCTG,1.03
23,TTGAAAGGAT,0.964
24,AAAGAGCAGC,1.07
25,AAGATCTCTG,0.965
26,TTTTATCG,1.04

row,Sequence,switch fluorescence ratio
1,GTGGGCCTTG,1.01
2,CCAAATGCG,1.04
3,TAGATTAGAG,1.01
4,AAGCCGGAGA,1.01
5,CGTCCTTGGA,0.962
6,GACGCTTCGT,1.02
7,AAGGACTCC,1.06
8,GAGCTAACCC,1.02
9,CGGTAAGATA,0.993
10,CGCCAGCTGA,1.15
11,AGGTCTGTAG,1.02
12,ATGGGGCTA,0.966
13,AGATTCTAAA,1
14,CAGCCTCACA,0.982
15,TCGCCAACTG,1.14
16,CAAGGATAGT,0.975
17,AGGAGTGCTT,1.01
18,AACATATT,1.04
19,GGTAGTTTTT,1.02
20,CCAATTAAGG,0.971
21,GCTCGAGCTC,1.04
22,ATTCTAGGGA,1.02
23,GTATGTGGG,1.01
24,GGCTACTCCT,1.62
25,TCACTTAAAT,1.01
26,TCATGATTGA,0.984

row,Sequence,switch fluorescence ratio
1,ACTGCCGGGA,1.02
2,ATAACTTATG,1.03
3,TTGGTATCCT,1.02
4,TCCGGAATGT,1.71
5,AGCGTTCGGG,1.01
6,CGGGTCTGAC,1.03
7,TAGCCGCCCC,1.53
8,GCCTGGCCGG,0.995
9,CTCAGCAGAT,2.83
10,ACGTTTTGC,1
11,AGCAACTAGT,1.02
12,GCCATGAACA,1.04
13,CGCGTCAGAT,1.09
14,TCATGGGTAT,1.03
15,GGGGAGGTGC,1.01
16,AGGGGTATGA,1.03
17,CGGAGAGCAC,1.06
18,TCTAACTTGC,1.1
19,TCCCTATGTG,1.32
